According to PMC4068158, “VAPB/ALS8 interacts with FFAT-like proteins including the p97 cofactor FAF1 and the ASNA1 ATPase” (BMC Biology, 2014):

T1: recombinant full-length Flag-FAF1 expressed in bacteria (human, UniProt Q9UNN5-1 1-650)
T1 construct: FAF1, human, wild type, full length; modified pGEX6P-1 with a TEV site and a Flag-tag downstream of the GST; also called GST-TEV-Flag-FAF1 after cleavage; source: E. coli BL21, GST fusion, GST removed with AcTEV protease; not shown: GST, N-terminal, cleaved; Flag, N-terminal, kept
T1 sequence (looked up): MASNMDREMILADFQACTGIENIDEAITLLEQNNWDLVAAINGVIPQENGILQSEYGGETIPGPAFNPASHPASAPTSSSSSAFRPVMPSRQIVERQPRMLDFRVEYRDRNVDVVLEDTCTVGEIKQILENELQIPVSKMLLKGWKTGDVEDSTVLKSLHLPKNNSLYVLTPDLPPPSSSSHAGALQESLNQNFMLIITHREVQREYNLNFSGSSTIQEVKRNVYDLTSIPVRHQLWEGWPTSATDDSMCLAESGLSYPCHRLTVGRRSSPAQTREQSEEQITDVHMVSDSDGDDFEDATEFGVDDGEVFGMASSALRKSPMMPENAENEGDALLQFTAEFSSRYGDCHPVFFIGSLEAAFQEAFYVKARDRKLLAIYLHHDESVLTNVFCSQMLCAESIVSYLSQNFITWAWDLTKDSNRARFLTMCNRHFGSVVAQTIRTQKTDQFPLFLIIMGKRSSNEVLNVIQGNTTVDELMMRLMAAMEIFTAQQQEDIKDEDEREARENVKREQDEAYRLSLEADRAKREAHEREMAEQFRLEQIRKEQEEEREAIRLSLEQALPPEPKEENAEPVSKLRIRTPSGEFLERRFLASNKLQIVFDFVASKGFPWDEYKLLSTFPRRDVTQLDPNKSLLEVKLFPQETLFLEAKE


Molecular target: T1, recombinant full-length Flag-FAF1 …
Experiment: pull-down; 2 μg recombinant Flag-FAF1 mixed with 0.5 μg recombinant VAPB (1 to 210) in 400 μl buffer B (50 mM HEPES/KOH pH 7.5, 60 mM KOAc, 5 mM MgCl2, 5% glycerol, 0.1% Triton X-100), 30 min at 4°C, then anti-Flag beads 30 min at 4°C; immunoblot
Details: both partners purified

binding result | Binder
binds | recombinant VAPB ([…]) wild type (domain or fragment, VAPB, human, […], lacking the C-terminal transmembrane region; GST-TEV-VAPB was either eluted with glutathione or recovered by TEV cleavage; also called truncated version of VAPB lacking the C-terminal transmembrane region; source: E. coli BL21, GST-TEV fusion, purified on GSH-Sepharose) not shown
binds | recombinant VAPB ([…]) P56S (domain or fragment, VAPB, human, […], ALS-causing mutation found in patients; also called VAPB P56S; source: E. coli BL21, GST-TEV fusion, purified on GSH-Sepharose) not shown
